Source: the RNAGym collection of RNA variant scans (doi:10.1093/nar/gkz1192)
Read counts are not given, so values of variants with three or more changes are uncertain.

B1: CPEB3 Ribozyme (parent)
chain: UAACAGGGGGCCACAGCAGAAGCGUUCACGUCGCAGCCCCUGUCAGAUUCUGGUGAAUCUGCGAAUUCUGCUGUAUAUCUC

Variants of: B1
Experiment: self-cleavage, relative activity (ratio to wild type); higher = more cleavage; in vitro, sequencing
Method in brief: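 After error-prone PCR and barcoding, CPEB3 ribozyme mutant libraries were transcribed with T7 RNA polymerase at 37°C for 5 hours, then given 15 min with DNase I before an EDTA stop, and they cleaved during both steps. Reverse transcription with template switching preceded Illumina sequencing. Relative activity divides a variant's cleaved/total read fraction by the unmutated ribozyme's. At least 5 reads were required per variant, and three batches were averaged.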

Variant	self-cleavage
UAACAGGGGGCCACAGCAGAAGCGUUCACGCCGCAGCCCCUGUCAGGUUCUGGUGAAUCUGCGAAUUCUGCUGUAUUUCUC [U31C A47G A77U]	0.44
UAACAGGGGGCCACAGCAGAAGCGUUCACGACGCAGCCCCUGUCAGAUUCUGGUGAAUCUGCGAACCCUGCUGUAUAUCUC [U31A U66C U67C]	0.23
UAACAGGGGGCCACAGCAGAAGCGUUCACGCCGCGGCCCCUGUCAGAUCCUGGUGGAUCUGCGAAUUCUGCCGUAUAUCUC [U31C A35G U49C A56G U72C]	1.31
UAACAGGGGGCCACAGCAGAAGCGUUCACGACGCAGCCCCUGUCAGAUUCUGGGGAAUUUGCGUAUUCUGCUGUAUAUCCC [U31A U54G C59U A64U U80C]	0.11
UAACAGGGGGCCACAGCAGAAGCGUUCACGCCGCAGCCCCUGUCAGGAUCUGGUGAAUCUGCGAAUUCUGCUGUAUAUCUC [U31C A47G U48A]	0.31
UAACAGGGGGCCACAGCAGAAGCGUUCACGCCGCGGCCCCUGGCAGAUUCUGGUGAAUCUGCGAAUUCUGCUGUAUAUCUC [U31C A35G U43G]	0.09
UAACAGGGGGCCACAGCAGAAGCGUUCACGCCGCAGCCCCUGUCAGAUUCUGGUGAGUCCGCGAAUUCUGCUGUAUAUCUC [U31C A57G U60C]	0.27
UAACAGGGGGCCACAGCAGAAGCGUUCACGACGCAGCCCCUGUCAGAUUCUGGUGAAUCAGCGAGUUCUGCUGUAUAUCUC [U31A U60A A65G]	0.26
UAACAGGGGGCCACAGCAGAAGCGUUCACGCCGCAGCCCCUGUCGGAUUCUGGUGGAUCUGCCAAUUCUGCUGUAUAUCUC [U31C A45G A56G G63C]	0.3
UAACAGGGGGCCACAGCAGAAGCGUUCACGCCGCAGCCCCUGUCAGAUUCUGGUGGUUCUGCGAAUUCUGCUGUAUACCUC [U31C A56G A57U U78C]	0.18
UAACAGGGGGCCACAGCAGAAGCGUUCACGCCGCAGCCCCUGUCAGGUUCUGGUGAAUAUGCGAAUUCUGCUGUAUAUCUC [U31C A47G C59A]	0.11
UAACAGGGGGCCACAGCAGAAGCGUUCACGCCGCAGCCCCUGUCAGGUUCUGAUGAAUCUGCGAAUUCUGCAGUAUAUCUC [U31C A47G G53A U72A]	0.34
UAACAGGGGGCCACAGCAGAAGCGUUCACGCCGCAGCCCCUGUCAGAUUCUGGUGUAUCUGCGAAUCCUGCUGUAUAUCUC [U31C A56U U67C]	0.15
UAACAGGGGGCCACAGCAGAAGCGUUCACGCCGCAGCCCCUGUCGGAUUCUGGUGAAUCUGCGAAUUCUGCAGUAUAUCUC [U31C A45G U72A]	0.26
UAACAGGGGGCCACAGCAGAAGCGUUCACGCCGCAGCCCCUGUCUGAUUCUGGUGAAUCAGCGAAUUCUGCUGUAUAUCUC [U31C A45U U60A]	0.93
UAACAGGGGGCCACAGCAGAAGCGUUCACGCCGCAGCCCCUGUCCGAUUCUGGUGAAUCUGCGAUUUCUGCUGUAUAUCUC [U31C A45C A65U]	0.44
UAACAGGGGGCCACAGCAGAAGCGUUCACGCCGCAGCCCCUGUCUGAUUCUGGUGAAUCUGCGAAUUCCGCUGUAUAUCUC [U31C A45U U69C]	0.43

Variant	self-cleavage
UAACAGGGGGCCACAGCAGAAGCGUUCACGCCGCGGCCCCUGUCAGAUUCUGGUGAAUCUGCGAAUUCUGCUGUAUAUCCC [U31C A35G U80C]	1.3
UAACAGGGGGCCACAGCAGAAGCGUUCACGCCGCUGCCCCCGUCAUAUUCUGGUGAAUCUGCGAAUUCUGCUGUAUAUCUC [U31C A35U U41C G46U]	0.11
UAACAGGGGGCCACAGCAGAAGCGUUCACGCCGCAGCCCCUGUCGGAUUCCGGCGAAUCUGCGAAUUCUGCUGUAUAUCUC [U31C A45G U51C U54C]	0.36
UAACAGGGGGCCACAGCAGAAGCGUUCACGACGCAGCCCCUGUCAGAUUCUGGUGAAUCUGCGAAUUCAGCUGCAUAUCUC [U31A U69A U74C]	0.44
UAACAGGGGGCCACAGCAGAAGCGUUCACGACGCAGCCCCUGUCAGAUUCUGGUGAAUCUGCGAAUUCCGCUGUAUACCUC [U31A U69C U78C]	0.23
UAACAGGGGGCCACAGCAGAAGCGUUCACGCCGCAGCCCCUGUCCGAUUCUGGUGAACCUGCGAAUUCUGCCCUAUAUCUC [U31C A45C U58C U72C G73C]	0.16
UAACAGGGGGCCACAGCAGAAGCGUUCACGCCGCAGCCCCUGUCUGAUUCCGGUGAGUCUGCGUAUUCUGCUGUAUAUCUC [U31C A45U U51C A57G A64U]	0.05
UAACAGGGGGCCACAGCAGAAGCGUUCACGCCGCAGCCCCUGUCAGAUUCUGGUGGAUCUGCGAUUUCAGCAGUAUAUCUC [U31C A56G A65U U69A U72A]	0.08
UAACAGGGGGCCACAGCAGAAGCGUUCACGCCGCAGCCCCUGUCAGCUUCAGGUGAAUCUGCGAAUUCUGCUGUAUAUCCC [U31C A47C U51A U80C]	0.24
UAACAGGGGGCCACAGCAGAAGCGUUCACGCCGCAGCCCCUGUCUGAUUCGGGUGAAUCUGCGAAAUCUGCUGUAUAUCUC [U31C A45U U51G U66A]	0.11
UAACAGGGGGCCACAGCAGAAGCGUUCACGCCGCGGCCCCUGUCAGAUUCCGGUGAAUCUGCGAAUUCUGCUGUAUAUCUC [U31C A35G U51C]	1.26
UAACAGGGGGCCACAGCAGAAGCGUUCACGCCGCUGCCCCGGCCAGAUCCUGGUGAAUCUGCGAAAUCUGCCGUAUAUCUC [U31C A35U U41G U43C U49C U66A U72C]	0.15
UAACAGGGGGCCACAGCAGAAGCGUUCACGCCGCAGCCCCUGUCAGAUUCUGGUGGAACUGCGAAUUCUGCUGUAUAUCUC [U31C A56G U58A]	0.12
UAACAGGGGGCCACAGCAGAAGCGUUCACGCCGCAGCCCCUGUCGGAUUCUGGAGUUCCUGCGAAUUCUGCUGUAUAUCUC [U31C A45G U54A A56U A57U U58C]	0.13
UAACAGGGGGCCACAGCAGAAGCGUUCACGCCGCAGCCCCUGUCCGAUUCUGGGGAAUCUGCGUAUUCUGCUGCAAAUCUC [U31C A45C U54G A64U U74C U76A]	0.18
UAACAGGGGGCCACAGCAGAAGCGUUCACGCCGCAGCCCCUGUCGGAUUCUGGUGAAUCUGCGGAUUCUGCUGUAUAUCUC [U31C A45G A64G]	0.14
UAACAGGGGGCCACAGCAGAAGCGUUCACGCCGCAGCCCCUGUCGGAUUCUGGUGAAUCUGCGAAUUCUGCAGCAUAUCUC [U31C A45G U72A U74C]	0.48
